Assay results: paper PMC12136788
This is one part of the list.

T1: UNK ZnF1-3 (human, UniProt Q9C0B0 31-174)
T1 sequence: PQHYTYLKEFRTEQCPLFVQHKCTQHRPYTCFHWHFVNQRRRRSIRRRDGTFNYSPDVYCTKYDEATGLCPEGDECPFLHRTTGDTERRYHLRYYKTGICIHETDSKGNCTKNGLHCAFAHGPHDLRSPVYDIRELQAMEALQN

B1: 39664085_39664205_5794_3pUTR_ENSG00000078142_ENST00000262039|human|control|control (ssRNA)
RNA: GGGAGUUCUACAGUCCGACGAUCUGGUUUAUUGUUUUAAAUCGCAAUGUUAUACUUAUGUGCAAAAAUAUACUUAAGGUAUAUUAUGGUUGUAGGUUAACAAUUGCAUUGGCAAGAUUCAUUUUUCCUGUAUGUUUUUACUGACAACAGAGGAUUGAGCAUCA
B2: chr15:69561275:69561276:+_ENSG00000138604_ENST00000261858|hu_hu|FALSE|FALSE (ssRNA)
RNA: GGGAGUUCUACAGUCCGACGAUCUUCUUUUAAGUCAUACAGCCCAAUUAAAGAAUACAUAAAGCCAUUUAAAACAAAAGAGCUAGGUGUGGUUGGAUAUUCUUCAUACCAGUCAUGUUUAUUCAUAAACACAGCUUUAACUCCCAACAGAGGAUUGAGCAUCA
B3: chr21:30434530:30434531:-_ENSG00000156261_ENST00000286788|hu_mus|motif|central (ssRNA)
RNA: GGGAGUUCUACAGUCCGACGAUCAUCAUCUACUGCCCUUUCUAUGUCAUCCAUCAGAUUGUCUGUAGAACCUCGAAGAACGGUAGUAGAAAUGGCACCAUCUUCUUUUUCAUGCUUAAAAACAACCACUUGUGUAUCUCCAACCAACAGAGGAUUGAGCAUCA
B4: chr2:160604868:160604869:+_ENSG00000136536_ENST00000409591|perfect_dup|motif|central (ssRNA)
RNA: GGGAGUUCUACAGUCCGACGAUCUGCCUCUGGUUCAGAGCUAUGAUUUUGGCUGAGCGACGACAACCCCCAUCUUCGCCGGAGAAAUCUAAAUCCCUGAGAUGCUUCAGCUGCCCUGCCCUCACUGACGUCAGAGGACGAGGACAACAGAGGAUUGAGCAUCA
B5: chr12:16052864:16052865:+_ENSG00000023734_ENST00000419869|hu_hu|motif|central (ssRNA)
RNA: GGGAGUUCUACAGUCCGACGAUCCCAUAGUCUCAAUGUUCCAUCUUCUGAACCACUGGCAUAGAGUUCUCCAUCAGGACGGAAUCUCACACAGUGAAUAGGACCAAAGUGUCCCUUGUAGGAUUCUAAUUCUUCUCCACUAUUCAACAGAGGAUUGAGCAUCA
B6: chr7:138056749:138056750:+_ENSMUSG00000040268_ENSMUST00000120441|mus_hu|FALSE|FALSE (ssRNA)
RNA: GGGAGUUCUACAGUCCGACGAUCUGUGCAGUUUAUUCUCAUUACAGUGUUCAACCAGUUUGACAUAUAAAGAUAACACACUUUAACAGUAAAUGUUGGGAGGCACACAUAUAUUCCCAUUCUGAAAGAAGACAUGUUAUAUAUCAACAGAGGAUUGAGCAUCA
B7: chr2:31072873:31072874:+_ENSMUSG00000000194_ENSMUST00000056433|mus_mus|FALSE|FALSE (ssRNA)
RNA: GGGAGUUCUACAGUCCGACGAUCCACACGGUGAGUGCUGAGGAGGGGGGCAGGUCAGCAUGUGAGCUCAGGUGGGUGAUGGAAUGUGGGAACAAGGCUGGGGGGUAGGCUAGAAUCUUCCUUUGAGGACCAGCAGCUUGGCAGCAACAGAGGAUUGAGCAUCA
B8: chr14:103542484:103542485:-_ENSMUSG00000033004_ENSMUST00000161008|mus_mus|FALSE|FALSE (ssRNA)
RNA: GGGAGUUCUACAGUCCGACGAUCUUCGACAAGAUGUUGUUGAUGUGAUGGAAGACAUUGCUCUGAUGGAGGAACUGGUGAUCGGACUGCUUGAACUUGAGGCUCCAGCAUCUUAAGGCCAUUUGUUGCAAUGAACUGCCACUACAACAGAGGAUUGAGCAUCA
B9: chr11:34129765:34129766:+_ENSG00000135372_ENST00000257829|hu_mus|FALSE|FALSE (ssRNA)
RNA: GGGAGUUCUACAGUCCGACGAUCCCAUUCUCAAUGAGAAUUCGAAUUCGGUUAUCCACCUUCUUCCGAUUCAUGAUGAAAAGCUAUCACUGCGCCCUGCUCCGGCCGACACCAGGCAGCUGCACAACGGAAGCACGUGAAGACCAACAGAGGAUUGAGCAUCA
B10: chr8:104447970:104447971:+_ENSG00000164934_ENST00000297579|hu_hu|hu_hu_hu_mus_False|58_108 (ssRNA)
RNA: GGGAGUUCUACAGUCCGACGAUCAUAUACCUCCCUGCUUCGGCUCUUGUCCACAGGAAAGAUUCUAAUAGACUUAUCGAAACUAGCAGACACAAAUUCCUUCCCAGUGGGAGAGUAGUCCACAUCAAGUACUGCAGACACGUGCAACAGAGGAUUGAGCAUCA
B11: chr1:186326634:186326635:-_ENSG00000047410_ENST00000367478|hu_mus|FALSE|FALSE (ssRNA)
RNA: GGGAGUUCUACAGUCCGACGAUCAGCGAAUAGCAGACGCUGAUUCUGCUGCUGAAGCUCUUCGAUGUUCCUGUAAGAUACUAGGUGCUGCGAAAUCACUUCAGACGAACUACUGAUGUCAGCAGAGCUGACCUCCUCAUCCCGCAACAGAGGAUUGAGCAUCA
B12: chr4:83122263:83122264:-_ENSMUSG00000028484_ENSMUST00000107214|mus_mus|motif|central (ssRNA)
RNA: GGGAGUUCUACAGUCCGACGAUCAUUGGAUUGUUUAGUUGAUGCCUGUUGACUUGAAAAUUUCACUUUCGGAUUGUUAUCGGUCUCCCACAAUCCUUCAUUAAAACCUUUCCGUUUAUUUGGUUUGCCAUACUUUUCCUUAUUCAACAGAGGAUUGAGCAUCA
B13: chr6:53387275:53387276:-_ENSG00000001084_ENST00000229416|hu_mus|FALSE|FALSE (ssRNA)
RNA: GGGAGUUCUACAGUCCGACGAUCUGUCCUCUCCCCCUUCUCCUGCAGAGUCUCAAGAACAUCGCCUCCAUUCAGUAACAACUGGACUUUCCUAUUUUCAUGAUCGAAGGACACCAACAUGUACUCCACCUCGUCACCCCACUUCAACAGAGGAUUGAGCAUCA
B14: chr9:100852126:100852127:+_ENSMUSG00000037286_ENSMUST00000129269|mus_hu|FALSE|FALSE (ssRNA)
RNA: GGGAGUUCUACAGUCCGACGAUCACCAUGUUCAGACUCAGGUUCUUGAAUCUGGUCUCCCAUGGGCCGACUGUUCUCCCGCAGUACAGUGGAUGUGAGUUGUGGUGCUGGCAGGGGGCCAGGAGUCUGAAUCAUGGUGUCAGUCAACAGAGGAUUGAGCAUCA

Biological target: T1, UNK ZnF1-3
Experiment: nsRBNS (natural sequence RNA bind-n-seq); RBNS binding buffer (assumed for nsRBNS): 25 mM Tris pH 7.5, 150 mM KCl, 3 mM MgCl2, 0.01% Triton X-100, 500 ug/ml BSA, 20 U/ml SUPERase-In, 4 C; UNK is unkempt and MSI1 is Musashi-1; names of the RNAs are library labels; protein concentration not given here; high values mean tight binding

B1 was tested. Which binding signal did it give?
Its binding signal is 0.431 enrichment R.

For B2, which binding signal is on record?
The binding signal was 0.923 enrichment R.

With B3 as the binder, how does the binding signal read?
Its binding signal is 1.16 enrichment R.

With B4 as the binder, how does the binding signal read?
Its binding signal is 0.586 enrichment R.

With B5 as the binder, how does the binding signal read?
The binding signal was 0.579 enrichment R.

How did the binding signal turn out when B6 was run?
The binding signal was 0.693 enrichment R.

For B7, which binding signal is on record?
Its binding signal is 1.78 enrichment R.

For B8, which binding signal is on record?
Its binding signal is 0.852 enrichment R.

With B9 as the binder, how does the binding signal read?
The binding signal was 1.24 enrichment R.

B10 was tested. Which binding signal did it give?
The binding signal was 0.956 enrichment R.

With B11 as the binder, how does the binding signal read?
The binding signal was 0.823 enrichment R.

For B12, which binding signal is on record?
The binding signal was 0.284 enrichment R.

Which binding signal does the source give for B13 here?
Its binding signal is 1.38 enrichment R.

With B14 as the binder, how does the binding signal read?
The binding signal was 0.42 enrichment R.
